Drawing on the supplement of paper PMC4967469, this text covers AUC and IC50 for nine cell lines.

pIC50: −log10 of the molar value. IC50 is the fitted dose that halves viability relative to control wells, and lower means more sensitive; where the fit passes the top or lowest dose, that dose stands as a limit. For AUC the same curve is integrated over the 256-fold range of doses and scaled to a fraction: 1 means no effect, lower means more sensitive. For some assays here: Any top dose called inferred comes from the curve model; the source does not state it. For some assays here: Drugs with an entry number were screened twice under separate entries, and the two screens often disagree.

Holding throughout (experiment): Viability of human cancer cell lines after 72 h of drug (GDSC screen)
Compound in one assay: C/C(=C\c1csc(C)n1)[C@@H]1C[C@@H]2O[C@]2(C)CCC[C@H](C)[C@H](O)[C@@H](C)C(=O)C(C)(C)[C@@H](O)CC(=O)O1 [Epothilone B]
The settings on record: top dose 0.032 µM; top dose inferred. The method, then:
(§1)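 Human cancer cell lines in 384-well plates, medium with 10% serum, drug for 72 h over a 256-fold dose range (nine 2-fold or five 4-fold steps up to the top dose). Adherent lines were fixed and stained with the nucleic acid dye Syto60, suspension lines read with resazurin; signal relative to control wells, capped at 0 and 100%. One two-parameter sigmoid per drug and line, fitted in a mixed model over all curves with the slope shared within a line.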

Compound in another assay: CC(C)CC(=O)Nc1n[nH]c2c1CN(C(=O)C1CCN(C)CC1)C2(C)C [PHA-793887]
The settings on record: top dose 10.24 µM. The method, then: as §1

Compound in another assay: CCCS(=O)(=O)Nc1ccc(F)c(C(=O)c2c[nH]c3ncc(Cl)cc23)c1F [PLX4720]
The settings on record: top dose 10 µM. The protocol: as §1

Compound in another assay: CCc1nc(N)nc(N)c1-c1ccc(Cl)cc1 [Pyrimethamine]
The following applies: top dose 20 µM; top dose inferred. The protocol: as §1

Compound in the next assay: CN1CCN(CCOc2cc(OC3CCOCC3)c3c(Nc4c(Cl)ccc5c4OCO5)ncnc3c2)CC1 [AZD-0530]
The following applies: top dose 2 µM. The method, then: as §1

Compound in the next assay: C[C@@H](N)c1ccc(C(=O)Nc2ccnc3[nH]ccc23)cc1 [Y-39983]
The settings on record: top dose 20 µM; top dose inferred. The method, then: as §1

Compound in the next assay: NC(=O)Nc1sc(-c2ccc(F)cc2)cc1C(N)=O [TPCA-1]
The following applies: top dose 20 µM. The protocol:
as §1

Where [1] appears, read: screen: GDSC drug entry 1371, top dose inferred.

With SU-DHL-16 (B-cell lymphoma, suspension), the AUC stood at 0.435 with Epothilone B; 0.068 with PHA-793887; 0.991 with PLX4720 (screen: GDSC drug entry 1036); 0.992 with PLX4720 (setting [1]); 0.932 in the assay with Pyrimethamine; 0.938 with AZD-0530. In addition, the AUC amounted to 0.616 in the assay with Y-39983 and 0.32 with TPCA-1. Besides, the pIC50 with Epothilone B was 8.86; with PHA-793887, 7.33; with PLX4720 (screen: GDSC drug entry 1036) it was less than 5.00; with PLX4720 (setting [1]), less than 5.00; with Pyrimethamine, 4.77; in the assay with AZD-0530, 5.74. The pIC50 is 5.62 with Y-39983 and 6.34 with TPCA-1.
Consider “SUP-B15 (lymphoblastic leukaemia, suspension)”, for which the AUC in the assay with Epothilone B was determined as 0.478; with PHA-793887, 0.667; with PLX4720 (screen: GDSC drug entry 1036), 0.968; with Pyrimethamine, 0.892; with AZD-0530, 0.77; with Y-39983 it was 0.915. Also, the AUC with TPCA-1 stood at 0.683. The pIC50 with Epothilone B is 8.76; with PHA-793887, 5.74; with PLX4720 (screen: GDSC drug entry 1036) it was less than 5.00; with Pyrimethamine, less than 4.70; in the assay with AZD-0530, 6.14; in the assay with Y-39983, less than 4.70. For the same cell line, the pIC50 with TPCA-1 is 5.40.
With SUP-HD1 (Hodgkin lymphoma, suspension), the AUC in the assay with Epothilone B was 0.767; with PHA-793887, 0.468; with PLX4720 (screen: GDSC drug entry 1036), 0.971; with PLX4720 (setting [1]), 0.982; with Pyrimethamine it was 0.907; with AZD-0530 it was 0.982. Moreover, the AUC in the assay with Y-39983 was 0.82; with TPCA-1, 0.564. In addition, the pIC50 with Epothilone B is 7.94; with PHA-793887, 6.28; in the assay with PLX4720 (screen: GDSC drug entry 1036), less than 5.00; in the assay with PLX4720 (setting [1]), less than 5.00; with Pyrimethamine, less than 4.70; with AZD-0530, less than 5.70. The pIC50 with Y-39983 is 4.97; with TPCA-1, 5.73.
On to “SUP-M2 (anaplastic large cell lymphoma, suspension)”, for which the AUC was 0.685 in the assay with Epothilone B; 0.178 with PHA-793887; 0.987 in the assay with PLX4720 (screen: GDSC drug entry 1036); 0.99 in the assay with PLX4720 (setting [1]); 0.936 with Pyrimethamine; 0.994 in the assay with AZD-0530. In addition, the AUC was 0.846 with Y-39983 and 0.704 with TPCA-1. Also, the pIC50 with Epothilone B was 8.24; with PHA-793887 it was 7.01; in the assay with PLX4720 (screen: GDSC drug entry 1036), less than 5.00; with PLX4720 (setting [1]), less than 5.00; with Pyrimethamine it was less than 4.70; with AZD-0530, less than 5.70. Moreover, the results for the pIC50 with Y-39983 and with TPCA-1 were 5.01 and 5.40, respectively.
Turning to SW684 (fibrosarcoma, adherent), the AUC was determined as 0.982 with Epothilone B; 0.974 in the assay with PHA-793887; 0.983 with PLX4720 (screen: GDSC drug entry 1036); 0.98 with PLX4720 (setting [1]); 0.953 with Pyrimethamine; 0.925 with AZD-0530. The AUC with Y-39983 and in the assay with TPCA-1 was 0.983 each time. Besides, the pIC50 with Epothilone B is less than 7.49; in the assay with PHA-793887, less than 4.99; with PLX4720 (screen: GDSC drug entry 1036) it was less than 5.00; with PLX4720 (setting [1]) it was less than 5.00; with Pyrimethamine, less than 4.70; with AZD-0530, less than 5.70. For the same cell line, the pIC50 with Y-39983 and in the assay with TPCA-1 was less than 4.70 in each case.
As for SW872 (soft tissue, adherent), the AUC with Epothilone B was 0.331; with PHA-793887, 0.974; with PLX4720 (setting [1]), 0.827; with Pyrimethamine, 0.916; with AZD-0530, 0.863; with Y-39983 it was 0.987. Further, the AUC with TPCA-1 turned out to be 0.946. Besides, the pIC50 with Epothilone B was 9.15; in the assay with PHA-793887, less than 4.99; in the assay with PLX4720 (setting [1]) it was 5.27; with Pyrimethamine it was less than 4.70; in the assay with AZD-0530 it was 5.84; with Y-39983, less than 4.70. Further, the pIC50 with TPCA-1 was less than 4.70.
In the case of SW962 (urogenital system, adherent), the AUC amounted to 0.424 with Epothilone B; 0.914 in the assay with PHA-793887; 0.98 in the assay with PLX4720 (screen: GDSC drug entry 1036); 0.975 in the assay with PLX4720 (setting [1]); 0.942 in the assay with Pyrimethamine; 0.877 with AZD-0530. For the same cell line, the AUC in the assay with Y-39983 amounted to 0.924; in the assay with TPCA-1, 0.847. Moreover, the pIC50 was 8.93 with Epothilone B; less than 4.99 in the assay with PHA-793887; less than 5.00 with PLX4720 (screen: GDSC drug entry 1036); less than 5.00 with PLX4720 (setting [1]); less than 4.70 in the assay with Pyrimethamine; less than 5.70 with AZD-0530. The pIC50 with Y-39983 and in the assay with TPCA-1 was less than 4.70 each time.
Turning to TC-71 (Ewing sarcoma, adherent), the AUC in the assay with Epothilone B worked out at 0.908; with PHA-793887, 0.679; with PLX4720 (screen: GDSC drug entry 1036), 0.955; with PLX4720 (setting [1]), 0.974; with Pyrimethamine, 0.97; with AZD-0530, 0.982. Also, the AUC in the assay with Y-39983 was found to be 0.919; with TPCA-1 it was 0.561. In addition, the pIC50 with Epothilone B is 7.51; with PHA-793887, 5.74; with PLX4720 (screen: GDSC drug entry 1036) it was less than 5.00; with PLX4720 (setting [1]), less than 5.00; with Pyrimethamine, less than 4.70; with AZD-0530, less than 5.70. For the same cell line, the values for the pIC50 with Y-39983 and in the assay with TPCA-1 were less than 4.70 and 5.75, respectively.
Turning to TE-1 (oesophagus, adherent), the AUC in the assay with Epothilone B is 0.516; in the assay with PHA-793887, 0.982; with PLX4720 (screen: GDSC drug entry 1036) it was 0.968; with PLX4720 (setting [1]), 0.95; with Pyrimethamine, 0.776; in the assay with AZD-0530 it was 0.81. Also, the AUC in the assay with Y-39983 is 0.974; in the assay with TPCA-1, 0.967. Besides, the pIC50 with Epothilone B was 8.65; with PHA-793887, less than 4.99; in the assay with PLX4720 (screen: GDSC drug entry 1036), less than 5.00; with PLX4720 (setting [1]), less than 5.00; in the assay with Pyrimethamine, 4.99; in the assay with AZD-0530, 5.85. Further, the pIC50 with Y-39983 and with TPCA-1 was less than 4.70 in each case.

Broadly, the pIC50 is the negative decadic logarithm of the IC50, by convention in mol/L.
